Article PMC3891622, “The Sphingolipid Receptor S1PR2 Is a Receptor for Nogo-A Repressing Synaptic Plasticity” (PLoS Biology, 2014)
Where two headings read alike, the source gives them in different places. Results are given in words; binding and its absence hold for the method and conditions named. In cells and extracts the contact can be indirect. Some entries that bind do so weakly or less than the wild type. For part of these data: Sequences can lack the tags named with a protein. Blank lines part the entries; values can stand above or below the molecule they belong to.

Chains of the proteins cited; added tags and fusions are not shown.
UniProt P52592: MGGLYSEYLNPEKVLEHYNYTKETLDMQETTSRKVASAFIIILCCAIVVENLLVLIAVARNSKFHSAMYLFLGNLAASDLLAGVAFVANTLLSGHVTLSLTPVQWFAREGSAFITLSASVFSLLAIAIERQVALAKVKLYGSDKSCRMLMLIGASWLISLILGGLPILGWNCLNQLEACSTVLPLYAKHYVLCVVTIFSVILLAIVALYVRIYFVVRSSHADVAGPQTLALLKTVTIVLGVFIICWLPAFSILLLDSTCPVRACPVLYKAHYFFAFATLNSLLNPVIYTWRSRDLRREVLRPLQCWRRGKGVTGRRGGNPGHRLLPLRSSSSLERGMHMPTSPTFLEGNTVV
UniProt O95136: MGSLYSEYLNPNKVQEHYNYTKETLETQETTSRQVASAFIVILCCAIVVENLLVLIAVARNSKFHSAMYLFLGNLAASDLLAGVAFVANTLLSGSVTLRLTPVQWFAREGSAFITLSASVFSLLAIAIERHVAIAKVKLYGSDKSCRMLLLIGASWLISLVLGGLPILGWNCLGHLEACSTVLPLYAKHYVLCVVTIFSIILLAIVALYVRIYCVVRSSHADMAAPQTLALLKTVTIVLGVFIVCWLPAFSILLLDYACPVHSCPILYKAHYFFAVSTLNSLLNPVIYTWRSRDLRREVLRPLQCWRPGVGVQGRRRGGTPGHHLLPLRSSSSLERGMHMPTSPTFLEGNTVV

How the values were obtained:
[1] = target: T1, Endogenous Nogo-A (~200 kDa) of mouse brain (mouse (endogenous in mouse brain)) (UniProt Q99P72); test: co-IP; whole brain of P10 WT, Nogo-A-/- and S1PR2-/- mice lysed in RIPA buffer; Pierce Co-IP Kit; IP of Nogo-A or of S1PR2; controls: IgG, resin only, quenched antibody resin
T1 sequence: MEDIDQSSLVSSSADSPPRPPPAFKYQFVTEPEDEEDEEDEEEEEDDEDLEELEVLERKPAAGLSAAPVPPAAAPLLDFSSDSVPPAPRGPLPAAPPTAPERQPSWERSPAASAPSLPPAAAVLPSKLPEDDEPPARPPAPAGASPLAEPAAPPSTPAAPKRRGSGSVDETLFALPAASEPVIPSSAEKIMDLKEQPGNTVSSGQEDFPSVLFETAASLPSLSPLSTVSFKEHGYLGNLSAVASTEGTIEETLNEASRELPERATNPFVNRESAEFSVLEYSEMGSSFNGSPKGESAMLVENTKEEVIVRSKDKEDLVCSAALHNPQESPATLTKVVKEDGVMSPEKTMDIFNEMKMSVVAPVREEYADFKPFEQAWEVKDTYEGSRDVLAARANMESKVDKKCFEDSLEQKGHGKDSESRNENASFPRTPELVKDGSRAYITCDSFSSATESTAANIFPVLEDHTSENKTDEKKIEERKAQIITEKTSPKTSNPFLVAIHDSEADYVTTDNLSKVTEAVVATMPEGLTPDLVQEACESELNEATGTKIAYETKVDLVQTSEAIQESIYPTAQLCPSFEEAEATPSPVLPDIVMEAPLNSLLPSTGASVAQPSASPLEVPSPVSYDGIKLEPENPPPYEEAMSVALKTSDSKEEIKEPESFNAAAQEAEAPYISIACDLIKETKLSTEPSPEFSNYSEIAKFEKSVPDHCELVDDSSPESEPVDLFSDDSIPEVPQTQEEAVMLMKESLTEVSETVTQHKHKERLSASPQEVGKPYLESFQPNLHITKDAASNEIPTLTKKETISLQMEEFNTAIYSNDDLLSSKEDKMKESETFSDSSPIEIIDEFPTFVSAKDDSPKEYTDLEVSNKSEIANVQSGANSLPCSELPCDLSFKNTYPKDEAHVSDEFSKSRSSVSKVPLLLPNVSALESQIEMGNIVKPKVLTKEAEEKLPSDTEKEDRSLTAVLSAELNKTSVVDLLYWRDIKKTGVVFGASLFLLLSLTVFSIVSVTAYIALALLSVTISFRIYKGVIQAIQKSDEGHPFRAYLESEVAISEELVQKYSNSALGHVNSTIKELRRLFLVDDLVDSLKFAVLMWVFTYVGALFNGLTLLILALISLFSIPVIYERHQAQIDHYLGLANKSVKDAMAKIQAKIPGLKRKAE

[2] = target: T2, His-tagged Nogo-A-Δ20 (rat aa544-725) (rat) (UniProt Q9JK11); test: pull-down; His-tagged Nogo-A-Δ20 co-incubated with S1PR2 membrane preparations and precipitated (His Protein Interaction Pull-Down kit, Pierce); blot for S1PR2; heat-inactivated Nogo-A-Δ20 as control; only the target purified
T2 sequence: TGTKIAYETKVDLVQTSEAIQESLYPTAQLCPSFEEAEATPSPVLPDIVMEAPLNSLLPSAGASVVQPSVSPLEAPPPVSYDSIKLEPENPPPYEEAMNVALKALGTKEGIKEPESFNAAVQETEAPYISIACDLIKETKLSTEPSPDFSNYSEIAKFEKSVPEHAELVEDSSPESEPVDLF

[3] = target: T2, His-tagged Nogo-A-Δ20 (rat aa544-725) (rat); test: as above; remark: listed apart in the source
[4] = target: Endogenous S1PR2 (~40 kDa) of mouse brain (mouse (endogenous in mouse brain)) (UniProt P52592); test: co-IP; whole brain of P10 WT, Nogo-A-/- and S1PR2-/- mice lysed in RIPA buffer; Pierce Co-IP Kit; IP of Nogo-A or of S1PR2; controls: IgG, resin only, quenched antibody resin
[5] = target: Recombinant full length S1PR2 in membrane preparations (UniProt O95136); test: co-IP; His-tagged Nogo-A-Δ20 co-incubated with S1PR2-overexpressing membranes; S1PR2 immunoprecipitated, blot for His-tagged Δ20; heat-inactivated Δ20 as control; only the binder purified
[6] = target: Recombinant full length S1PR2 in membrane preparations (UniProt O95136); test: as above; remark: listed apart in the source

Molecule: Endogenous S1PR2 (~40 kDa) of mouse brain (from UniProt P52592 1-352) (receptor)
- binding [1]: binds

Molecule: Recombinant full length S1PR2 in membrane preparations (from UniProt O95136 1-353) (receptor)
- binding [2]: binds
- binding [3]: no binding (condition: heat-inactivated Δ20)

More lines, main results first:

- binding [4]: binds
B1: Endogenous Nogo-A (~200 kDa) of mouse brain (protein, UniProt Q99P72-2 1-1162)
chain: MEDIDQSSLVSSSADSPPRPPPAFKYQFVTEPEDEEDEEDEEEEEDDEDLEELEVLERKPAAGLSAAPVPPAAAPLLDFSSDSVPPAPRGPLPAAPPTAPERQPSWERSPAASAPSLPPAAAVLPSKLPEDDEPPARPPAPAGASPLAEPAAPPSTPAAPKRRGSGSVDETLFALPAASEPVIPSSAEKIMDLKEQPGNTVSSGQEDFPSVLFETAASLPSLSPLSTVSFKEHGYLGNLSAVASTEGTIEETLNEASRELPERATNPFVNRESAEFSVLEYSEMGSSFNGSPKGESAMLVENTKEEVIVRSKDKEDLVCSAALHNPQESPATLTKVVKEDGVMSPEKTMDIFNEMKMSVVAPVREEYADFKPFEQAWEVKDTYEGSRDVLAARANMESKVDKKCFEDSLEQKGHGKDSESRNENASFPRTPELVKDGSRAYITCDSFSSATESTAANIFPVLEDHTSENKTDEKKIEERKAQIITEKTSPKTSNPFLVAIHDSEADYVTTDNLSKVTEAVVATMPEGLTPDLVQEACESELNEATGTKIAYETKVDLVQTSEAIQESIYPTAQLCPSFEEAEATPSPVLPDIVMEAPLNSLLPSTGASVAQPSASPLEVPSPVSYDGIKLEPENPPPYEEAMSVALKTSDSKEEIKEPESFNAAAQEAEAPYISIACDLIKETKLSTEPSPEFSNYSEIAKFEKSVPDHCELVDDSSPESEPVDLFSDDSIPEVPQTQEEAVMLMKESLTEVSETVTQHKHKERLSASPQEVGKPYLESFQPNLHITKDAASNEIPTLTKKETISLQMEEFNTAIYSNDDLLSSKEDKMKESETFSDSSPIEIIDEFPTFVSAKDDSPKEYTDLEVSNKSEIANVQSGANSLPCSELPCDLSFKNTYPKDEAHVSDEFSKSRSSVSKVPLLLPNVSALESQIEMGNIVKPKVLTKEAEEKLPSDTEKEDRSLTAVLSAELNKTSVVDLLYWRDIKKTGVVFGASLFLLLSLTVFSIVSVTAYIALALLSVTISFRIYKGVIQAIQKSDEGHPFRAYLESEVAISEELVQKYSNSALGHVNSTIKELRRLFLVDDLVDSLKFAVLMWVFTYVGALFNGLTLLILALISLFSIPVIYERHQAQIDHYLGLANKSVKDAMAKIQAKIPGLKRKAE

- binding [5]: binds
B2: His-tagged Nogo-A-Δ20 (rat aa544-725) (domain or fragment, UniProt Q9JK11-1 544-725)
chain: TGTKIAYETKVDLVQTSEAIQESLYPTAQLCPSFEEAEATPSPVLPDIVMEAPLNSLLPSAGASVVQPSVSPLEAPPPVSYDSIKLEPENPPPYEEAMNVALKALGTKEGIKEPESFNAAVQETEAPYISIACDLIKETKLSTEPSPDFSNYSEIAKFEKSVPEHAELVEDSSPESEPVDLF
- binding [6]: no binding (condition: heat-inactivated Δ20)
